Laboratory results published in the supplement of paper PMC10126150.
Sequences with one replicate were seen in a single cluster, so their values are uncertain.

System: ATP
Assay: switch fluorescence ratio, 500 uM ATP over buffer (Cy3 cluster intensity, sum of 5 cycles each) (fold (ratio)); higher = stronger signal-on switching upon ATP binding; sequences stand for … in TCGTCGGCAGCGTCAGATGTGTATAAGAGACAGTTTTTTTTTTTTTTTTTTTTTTTTT…TC
Conditions: aptamer strand: ATP DNA aptamer (quencher-CACCTGGGGGAGTATTGCGGAGGAAGG + anchor), 100 nM annealed; ATP concentration: 500 uM; one replicate
Outline: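 Clusters carrying Cy3-labelled switching strands on a modified Illumina MiSeq flow-cell were annealed to 100 nM quencher-labelled ATP aptamer and imaged in selection buffer. They were imaged again after 15 min with 500 uM ATP at 22 °C, over five buffer/ATP cycles with NaOH stripping and re-annealing in between. For each cluster, the fluorescence ratio is the summed Cy3 intensity of the target cycles divided by that of the buffer cycles, averaged per switch-domain sequence. Clusters outside 100-1000 RFU were left out.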
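Note: ATP exposure 15 min at 22 °C before imaging.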

Row | Sequence | switch fluorescence ratio
1 | GAGCGAGTAA | 1.02
2 | CCTGAGCAGC | 1.78
3 | GTCATATACG | 1.1
4 | GCATATTCTT | 0.991
5 | TGTGTCCGTA | 0.909
6 | AACCCGTGAC | 1.22
7 | TTGGTACCTA | 1
8 | TTTCTCTAGG | 1.02
9 | CAACTATAGC | 1.04
10 | GCTCATTCAT | 0.995
11 | CAGTCTCTTG | 0.972
12 | GCTGTCAAAG | 0.982
13 | TGCCGGGCAT | 0.974
14 | ACTGGTAGCG | 1.04
15 | CATGGGGCCC | 1.01
16 | TATACGCCAG | 0.994
17 | TAACTAGAAC | 1.01
18 | CCCATTATTA | 1.06
19 | TAACTCATAT | 1.01
20 | GAAGTCGTCT | 1.02
21 | GGACATTGGT | 1.02
22 | CGGGCATTGC | 1.13
23 | CTGGGCATTG | 0.995
24 | GGTGTGCTTC | 1.01
25 | GCGTTCAGAA | 0.987
26 | ACTCCCTGTG | 1.21

Row | Sequence | switch fluorescence ratio
27 | CGTGTATTT | 1.07
28 | GTTGGAGAG | 0.994
29 | GCAATTATAA | 1.07
30 | TCAATACTAA | 1.04
31 | TTCAGGGGG | 1.04
32 | TACGTGTTC | 0.981
33 | CGGGCAAATC | 1.19
34 | CTCATTCCCT | 1.04
35 | GGTTTACTGA | 0.995
36 | CCCGGATTAA | 1.04
37 | TAGTGGGAAG | 0.935
38 | CGGAAGATAA | 0.959
39 | GAAATAGTAA | 0.998
40 | CTGTCCTGTA | 1.01
41 | GGAGCAGCGA | 1.12
42 | AGTTTGGATG | 0.958
43 | CTTATGCATA | 1.1
44 | ACCCCGCGTC | 2.7
45 | TGTGACCAGA | 1
46 | ATCGACTGGG | 1.02
47 | TGCTATATGA | 1.05
48 | TGTGTAGGCC | 0.999
49 | CTTTGTGCG | 0.989
50 | TCAGACTCGG | 1.08
51 | TACTTCCAAT | 1.42
52 | CGCCTACACG | 1.02

Row | Sequence | switch fluorescence ratio
53 | ACTTGGGGG | 1.01
54 | TACTTACCTT | 1.18
55 | ATGTTACTCA | 0.992
56 | ATAAAAGCT | 1.06
57 | ATCGCGTTG | 0.982
58 | CTACCTACGC | 2.64
59 | GTAGAAGAAG | 1.16
60 | ATCAAAGACT | 1.04
61 | AGGGTTTGAA | 0.935
62 | TTGCGTTCCG | 1.01
63 | GGCTAGTGTT | 0.979
64 | ACACTTCACC | 1.33
65 | CGTAAGAG | 1.04
66 | TTTCTTGACG | 1.02
67 | TGCTACTGGG | 0.933
68 | ACTGCGACGG | 1.15
69 | AATCGCAATT | 2.39
70 | CGTAGACATT | 1.05
71 | CCTTTCAGCA | 1.93
72 | GGGACTCTA | 1.01
73 | TGCGCCCACA | 1.01
74 | CTAAAGTCG | 0.932
75 | AAGGGATCGT | 0.98
76 | TCATGTATGT | 1.04
77 | ACTGATCTTC | 0.971
78 | ATCTTTCCGG | 1.04

Row | Sequence | switch fluorescence ratio
79 | TTTAGGGGT | 0.995
80 | TGCATATTTA | 1
81 | CAAGGGGAAG | 0.984
82 | GCTGAAGATT | 0.996
83 | TTACGTCGTA | 0.991
84 | GCCGTCTACC | 1.03
85 | GACGATTTGT | 0.965
86 | TTTATAGAGG | 0.923
87 | GATTTCTGTC | 1.01
88 | CTGAAAAAGT | 1.03
89 | CAGAAAGGCG | 1.04
90 | GCCAATTGCC | 1.02
91 | GAGGCTAACA | 0.98
92 | GGATGCTTTG | 1.01
93 | GCGGTAAAGC | 1.03
94 | TTGTCAAGTT | 0.98
95 | GGTATGGCGT | 1.11
96 | TTCGCCATTT | 1.04
97 | TGTTGTTAGT | 1
98 | AGAAGGTGTG | 1
99 | CGATTTCGCA | 1.02
100 | GCTGGTATTC | 1.01
101 | ACTGGGGTTC | 1.04
102 | CCAAGCGGCT | 1.03
103 | GTGCATCGGG | 0.968
104 | GCAGACTTGT | 0.958

Row | Sequence | switch fluorescence ratio
105 | GATATTTAGA | 0.995
106 | ATTCTTGTGC | 0.925
107 | ATTATGTCGG | 1.02
108 | ATACAGCGGC | 1.05
109 | AATGCATGAA | 1.04
110 | CGGAACCGTT | 1.01
111 | TGTGGAGCAA | 3.76
112 | TGTTTTACAA | 0.972
113 | CTATACTATA | 1.06
114 | CTCCGTGGCA | 1.96
115 | CGTCCACATT | 1.8
116 | GCTGGTCTGA | 1.01
117 | GTAACCCACA | 1.36
118 | GAGAATTAGT | 1.04
119 | TTGAATCGGC | 1.01
120 | TCATTAAATT | 0.998
121 | CTGGAGGCCT | 0.971
122 | CCTGCATCGG | 1.15
123 | CAGTAGTGCG | 0.955
124 | TGGCATGTGG | 0.986
125 | ATCTGATTCA | 0.977
126 | GCTAGAAAAT | 0.917
127 | ACCCTCGGCG | 1.05
128 | TTAACGCTTA | 1.5
129 | GTTAGAAACT | 1.04
130 | AATGTCATAA | 0.966

Row | Sequence | switch fluorescence ratio
131 | CTTAATCGCC | 1.01
132 | CAGTACCACG | 1.07
133 | CGAGTAGTCT | 0.993
134 | GAATTCATTA | 1.01
135 | ACCTGCCATT | 1.6
136 | CATATCGAGG | 0.992
137 | AGGTCTGGCC | 0.964
138 | TGTACGCTCC | 1.28
139 | TTTTGTGCCA | 0.994
140 | GAAGTCATGA | 1.01
141 | ATACCCTGAA | 0.98
142 | AGGGATTGTG | 1
143 | CAGATAGTTA | 1.01
144 | TGCTTATGAT | 0.995
145 | TTTCACCCGG | 1.17
146 | TAGCTTATTC | 1.1
147 | ATCGGCTGAG | 1
148 | TTAGTAAAGC | 0.956
149 | TCGGTTTTCC | 1.01
150 | CATGATCTTG | 0.992
151 | GGAAAGTGAC | 0.933
152 | TACGGTGCAT | 1.07
153 | TAGCTTCGCC | 1.07
